Consider 86 molecules from PMC4336329 (PLoS ONE, 2015).

Out of some 310,000 compounds screened, about 2,200 (0.71%) showed an effect of 50% or more. Effects have a minus sign here. The list shows a part of the results.

For the assay, the target named is human ether-à-go-go-related gene (hERG) potassium channel (human, UniProt Q12809). Description: primary screen, population patch clamp on CHO cells stably expressing hERG.
human ether-à-go-go-related gene (hERG) potassium channel, sequence (Q12809 whole entry, looked up): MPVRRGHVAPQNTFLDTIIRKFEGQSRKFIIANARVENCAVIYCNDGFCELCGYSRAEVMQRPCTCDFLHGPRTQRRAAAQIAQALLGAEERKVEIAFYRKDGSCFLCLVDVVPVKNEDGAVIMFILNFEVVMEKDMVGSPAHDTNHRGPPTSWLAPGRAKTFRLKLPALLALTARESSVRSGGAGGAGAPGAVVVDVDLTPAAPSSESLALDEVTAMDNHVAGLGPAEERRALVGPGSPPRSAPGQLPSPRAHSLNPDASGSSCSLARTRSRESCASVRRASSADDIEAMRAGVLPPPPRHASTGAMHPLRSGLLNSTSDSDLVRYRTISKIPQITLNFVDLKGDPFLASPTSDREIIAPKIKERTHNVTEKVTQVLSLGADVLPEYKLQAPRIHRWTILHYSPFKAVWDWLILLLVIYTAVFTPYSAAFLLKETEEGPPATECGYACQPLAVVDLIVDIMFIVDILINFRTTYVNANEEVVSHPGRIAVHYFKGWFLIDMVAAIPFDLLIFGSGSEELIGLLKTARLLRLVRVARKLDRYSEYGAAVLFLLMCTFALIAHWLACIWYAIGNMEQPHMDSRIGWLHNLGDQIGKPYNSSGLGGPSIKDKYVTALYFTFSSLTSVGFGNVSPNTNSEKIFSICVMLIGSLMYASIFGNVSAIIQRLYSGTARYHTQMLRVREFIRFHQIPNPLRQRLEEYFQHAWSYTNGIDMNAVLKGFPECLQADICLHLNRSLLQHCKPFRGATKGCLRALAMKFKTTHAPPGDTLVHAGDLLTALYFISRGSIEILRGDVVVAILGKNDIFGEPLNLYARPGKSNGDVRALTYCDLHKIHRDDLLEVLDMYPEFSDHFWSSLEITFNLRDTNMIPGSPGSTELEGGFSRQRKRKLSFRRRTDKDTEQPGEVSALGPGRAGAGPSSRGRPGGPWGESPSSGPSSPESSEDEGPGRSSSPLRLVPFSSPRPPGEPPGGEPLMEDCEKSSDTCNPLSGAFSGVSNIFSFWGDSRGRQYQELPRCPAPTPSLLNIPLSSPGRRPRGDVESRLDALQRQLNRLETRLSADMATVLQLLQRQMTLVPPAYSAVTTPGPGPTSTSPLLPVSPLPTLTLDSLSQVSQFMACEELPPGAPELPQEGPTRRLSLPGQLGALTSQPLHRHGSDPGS
`O=C(COc1ccccc1)Nc1nc2cc3c(cc2s1)OCCO3`: the “hERG current change (%, negative = inhibition) at 1uM” value came to 6.05%.
In the case of `OC(CSc1c(Cl)cccc1Cl)CN1CCN(c2ccccc2F)CC1` (centres unmarked) it was -9.9%.
The value for `CC(=O)c1c(C)nn(CC(=O)NC2CCCN(Cc3ccc(CC(C)C)cc3)C2)c1C` (centres unmarked) was -18.8%.
On to `O=C(COc1ccccc1F)Nc1ccc(S(=O)(=O)Nc2nccs2)cc1`, for which the “hERG current change (%, negative = inhibition) at 1uM” value is recorded as 5.26%.
In the case of `NC(=O)C[C@@H]1N[C@]2(C(=O)Nc3ccccc32)[C@@H]2C(=O)N(c3cc(C(F)(F)F)ccc3Cl)C(=O)[C@H]12` it was 9.92%.
In the case of `CCC1C(=O)Nc2ccccc2N1C(=O)c1ccc(Cl)nc1` (centres unmarked) it was -0.521%; in that of `NS(=O)(=O)c1ccc(CCNC(=O)C(=O)c2cn(CC(=O)N3CCOCC3)c3ccccc23)cc1`, 11.9%.
On to `CCn1c2ccccc2c2cc(NC(=O)COC(=O)c3cc(S(N)(=O)=O)c(Cl)cc3Cl)ccc21`, for which the “hERG current change (%, negative = inhibition) at 1uM” value stood at 9.4%.
Turning to `COc1cc([C@H]2Oc3cc([C@H]4Oc5cc(O)cc(O)c5C(=O)[C@@H]4O)ccc3O[C@@H]2CO)ccc1O`, the “hERG current change (%, negative = inhibition) at 1uM” value was 8.59%.
With `CCc1nonc1NC(=O)c1oc2ccc(Cl)cc2c1C`, the “hERG current change (%, negative = inhibition) at 1uM” value is reported as 10.1%.
For the molecule `Cc1ccc2cc(CN(CCCN3CCOCC3)C(c3nnnn3Cc3ccco3)C(C)C)c(=O)[nH]c2c1C` (centres unmarked), the “hERG current change (%, negative = inhibition) at 1uM” value is reported as -1.82%.
In the case of `CCOC(=O)N1CCN(C(=O)c2ccc(OC(C)=O)cc2)CC1`, the “hERG current change (%, negative = inhibition) at 1uM” value was determined as 13%.
In the case of `CC(=O)Nc1ccc(N=C(C2=C(O)c3ccccc3C2=O)c2ccccc2)cc1` it was 10.7%.
In the case of `COc1ccc2c(c1)CCN(C(=O)CCl)C2C1C(=O)CCCC1=O` (centres unmarked) it was 4.23%; in that of `CSCCC(=O)N1CCN(CC(=O)N2CCCC2)CC1`, 11.8%.
Consider `Cc1ccc(S(=O)(=O)N2CCN(CC(=O)N/N=C\c3cccnc3)CC2)cc1`, for which the “hERG current change (%, negative = inhibition) at 1uM” value is 15.4%.
With `CC(C)Cc1nnc(NC(=O)C2CCCC2)s1`, the “hERG current change (%, negative = inhibition) at 1uM” value amounted to 11.5%.
For the molecule `COc1cc(/C=C(/NC(C)=O)C(=O)O)cc(Cl)c1OCc1ccc(Br)cc1`, the “hERG current change (%, negative = inhibition) at 1uM” value is recorded as -4.77%.
The value for `Cc1cccc(N=C2C(=O)Nc3c(Cl)cccc32)c1` was 23.2%.
In the case of `c1ccc(CCn2nnnc2CN2CCc3ccccc32)cc1` it was 8.2%; in that of `O=C(c1ccc(Cl)s1)N1CCc2ccccc21`, 0.572%; in that of `Cc1ccc(NC(=O)Nc2ccc3c(c2)N(C)C(=O)CS3)nc1`, -5.11%.
In the case of `NS(=O)(=O)c1ccc(CCNC(=O)c2ccncc2)cc1` it was 14.4%; in that of `O=S(=O)(NCc1ccccn1)c1ccc2c(c1)OCCO2`, 8.68%; in that of `C=CCc1cc(/C=C2/NC(=O)N(CC)C2=O)cc(OCC)c1OCc1ccc(C(=O)O)cc1`, 7.07%.
On to `CCOc1cc2oc(=O)c3c(c2cc1Cl)CCC3`, for which the “hERG current change (%, negative = inhibition) at 1uM” value came out at 10.5%.
Regarding `CCC(C)Sc1ccc([C@@H]2[C@H]3C(=O)N(CC)C(=O)[C@H]3[C@]3(C(=O)OC)CCCN23)cc1OC.O=C(O)C(F)(F)F` (some centres unmarked), the “hERG current change (%, negative = inhibition) at 1uM” value is reported as -11.8%.
In the case of `COc1cc(/C=N/NC(=O)CCOc2ccccc2C)cc(Br)c1O` it was 12.3%; in that of `CC(C)[C@H](NC(N)=O)C(=O)NCCc1ccc(Cl)cc1Cl`, -10.1%.
With `Cc1ccccc1N(CC(=O)NC(C)(C)C)C(=O)c1ccc(-c2ccccc2)[nH]1`, the “hERG current change (%, negative = inhibition) at 1uM” value came out at 3.83%.
In the case of `Cc1ccc(NC(=O)Cn2nnc(-c3ccc4c(c3)OCO4)n2)cc1F` it was 13.6%.
For the molecule `O=C(COC(=O)c1cccs1)NCc1ccco1`, the “hERG current change (%, negative = inhibition) at 1uM” value is reported as 6.46%.
The value for `COc1ccc(OCCOC(=O)CCS(=O)(=O)c2ccc(C)cc2)cc1` was 14.9%; that for `COc1cccc(-c2nnc(SCC(=O)OC(C)C)n2Cc2ccco2)c1` was 2.84%.
With `COc1ccc(C(=O)OCC(=O)Nc2nnc(-c3ccccc3)o2)cc1`, the “hERG current change (%, negative = inhibition) at 1uM” value worked out at 9.9%.
Consider `Cc1ccc(C(=O)NCCN2CCOCC2)c(Cl)c1`, for which the “hERG current change (%, negative = inhibition) at 1uM” value is listed as 4.75%.
The value for `O=C(CSc1nc(O)c(Cc2ccccc2)c(=O)[nH]1)Nc1ccccc1` was 6.66%; that for `COc1ccc(C)cc1NC(=O)C(OC(=O)CNC(=O)c1cccc(F)c1)c1ccccc1` (centres unmarked) was 5.22%; that for `COC1C(C)=C(C)C(=O)N1Cc1ccccc1` (centres unmarked) was 13.4%.
In the case of `CCOC(=O)c1sc(NC(=O)CN(CC)CC)c(C(=O)OCC)c1C` it was 14.6%.
The value for `NC1=NC(=O)C2(COC(c3cccc([N+](=O)[O-])c3)OC2)S1` (centres unmarked) was -7.09%; that for `O=C(Nc1ccc(Cl)cc1)c1ccc2c(c1)S(=O)(=O)c1ccccc1C2=O` was 8.33%.
With `Cc1ccccc1S(=O)(=O)Nc1nc2ccccc2nc1Cl`, the “hERG current change (%, negative = inhibition) at 1uM” value amounted to 10.2%.
Turning to `Cc1ccccc1OCC(=O)OCC(=O)c1ccc[nH]1`, the “hERG current change (%, negative = inhibition) at 1uM” value was determined as 10.2%.
The value for `COC(=O)CN(c1ccc(OC)cc1)S(=O)(=O)c1c(C)noc1C` was 10.6%.
The value for `Cc1ccccc1NC(=S)NNC(=O)c1csc2c1CCC(C)C2` (centres unmarked) was 10.4%.
In the case of `Cc1ccccc1Oc1ccc(NC(=O)C2CC=CCC2C(=O)O)cc1` (centres unmarked) it was 9.4%.
Take `C/C(=N\NC(=O)c1ccc(CN2CCOCC2)cc1)c1ccc(NC(=O)c2ccccc2)cc1`: the “hERG current change (%, negative = inhibition) at 1uM” value is on record as 9.2%.
Turning to `C=CCn1c(N)c(C(=O)NCc2ccco2)sc1=S`, the “hERG current change (%, negative = inhibition) at 1uM” value worked out at 3.13%.
On to `CN1CCc2nc(SCC(=O)Nc3cccc(F)c3)c(C#N)c(-c3cccs3)c2C1`, for which the “hERG current change (%, negative = inhibition) at 1uM” value was -8.28%.
With `CCC(=O)N(CC)c1nc(-c2ccc(OC)cc2)cs1`, the “hERG current change (%, negative = inhibition) at 1uM” value is 8.42%.
The value for `O=C(Nc1ccc(Cl)cc1)N1CCc2[nH]c3ccccc3c2C1` was -11.3%; that for `CN(C)/C=N/c1nc(Sc2ccc(C(F)(F)F)cc2[N+](=O)[O-])n[nH]1` was 4.55%; that for `CCNC(=O)c1c(O)c2cccc3c2n(c1=O)CC3` was 11.9%.
The value for `COCc1cc(C)nc2sc(C(=O)NCCO)c(-n3cccc3)c12` was 16.1%; that for `COc1cccc(CNC(=O)CCC2CCCN(Cc3cc(Cl)ccc3O)C2)c1` (centres unmarked) was -20%; that for `Cc1ccc(NC(=O)c2nc[nH]c2C(=O)N[C@@H](C)C(=O)OC(C)(C)C)cc1` was 14.5%.
With `C=CCN(C(=O)c1oc2c(Cl)cc(C)cc2c1C)C1CCS(=O)(=O)C1` (centres unmarked), the “hERG current change (%, negative = inhibition) at 1uM” value came to 2.56%.
The value for `COc1ccc(C(=O)N2CCN(C(=O)Cc3ccccc3)CC2)cc1OC` was 12.5%; that for `Cc1ccc(OCCCC(=O)NCc2ccco2)cc1` was 13.7%.
With `O=C(Nc1cccc(Cl)c1)NC1CCCCC1`, the “hERG current change (%, negative = inhibition) at 1uM” value is recorded as -1.95%.
Take `O=C1c2cccnc2C(Nc2ccc(Br)cc2Br)N1Cc1cccs1` (centres unmarked): the “hERG current change (%, negative = inhibition) at 1uM” value is given as 1.49%.
The value for `Cc1cc(C)c(C#N)c(SCC(=O)Nc2nonc2N)n1` was 8.17%; that for `O=C(Nc1ccc2c(c1)OCO2)c1cn(Cc2ccc(F)cc2)nn1` was 19.9%.
The value for `O=C(CCl)N(CCCNC(=O)C(F)(F)F)c1ccc([N+](=O)[O-])cc1` was 10.3%; that for `COc1cccc(C2[C@H](C)C3(CCN2C)OCCO3)c1.Cl` (some centres unmarked) was 15.6%.
In the case of `O=C(COC(=O)CNC(=O)c1ccc(Br)o1)Nc1ccc2c(c1)OCCO2` it was 1.57%; in that of `CCOc1ccc(S(=O)(=O)N2CCC(C(=O)NCc3ccccn3)CC2)cc1`, -3.27%.
For `O=C(Oc1ccc(C(=S)N2CCOCC2)cc1)c1ccc(F)cc1`, the “hERG current change (%, negative = inhibition) at 1uM” value is recorded as 14.5%.
As for `Cc1nnc2n(-c3ccccc3)c(=O)c3c4c(sc3n12)COC(C(C)C)C4` (centres unmarked), the “hERG current change (%, negative = inhibition) at 1uM” value turned out to be 9.92%.
`CCC[C@@H](CN[C@@H](CNC)C(C)C)NCCCCc1ccccc1`: the “hERG current change (%, negative = inhibition) at 1uM” value was determined as 3.77%.
The value for `NS(=O)(=O)c1ccc(-c2ccc(C=C3C(=O)c4ccccc4C3=O)o2)cc1` was 13.6%.
The value for `CC[C@H](C)[C@@H](C(=O)NCCCCCCCCCCC(=O)N1CCNCC1)n1cc(CCCCCN)nn1` was 16.7%; that for `O=C(CCn1cncn1)N1CCCC(N2CCN(c3ccc(F)cc3)CC2)C1` (centres unmarked) was 8.37%; that for `O=C(c1ccc(COc2ccc(F)cc2)o1)n1cc(Br)cn1` was 9.35%.
In the case of `O=C(COC(=O)C1Cc2ccccc2CN1C(=O)c1ccccc1)Nc1ccc(SC(F)F)cc1` (centres unmarked) it was -5.74%.
As for `COc1ccc(Oc2coc3c(CN(C)C)c(O)ccc3c2=O)cc1`, the “hERG current change (%, negative = inhibition) at 1uM” value came out at 14.7%.
The value for `CCN(NC(=O)C(O)(c1ccc(F)cc1)c1ccc(F)cc1)C(=O)c1ccccc1` was 12.4%; that for `COC(=O)C1=C(N)Oc2cc(C)n(Cc3ccco3)c(=O)c2C1c1cccc(Cl)c1` (centres unmarked) was 7.31%.
The value for `Cn1ncc([N+](=O)[O-])c1C(=O)Nc1ccc(Cl)cc1` was 16.4%; that for `CCCCN1C(=O)/C(=c2\sc3nc(=O)c(-c4ccccc4)nn3c2=O)c2ccccc21` was 5.25%; that for `Cn1c(CCNC(=O)c2ccccc2F)nnc1SCC(=O)Nc1nncs1` was 15.3%.
For the molecule `O=C(OC(C(=O)NC1CCCCC1)c1ccccn1)c1cccs1` (centres unmarked), the “hERG current change (%, negative = inhibition) at 1uM” value worked out at 12.6%.
In the case of `CC(=O)NC(NC(=S)Nc1ccc(S(N)(=O)=O)cc1)C(Cl)(Cl)Cl` (centres unmarked), the “hERG current change (%, negative = inhibition) at 1uM” value is 11.6%.
Turning to `Cc1ccccc1NC(=O)Cc1nc(-c2c[nH]c(C(=O)N3CCCC3)c2)cs1`, the “hERG current change (%, negative = inhibition) at 1uM” value is 11.8%.
In the case of `Cn1c2c(c(=O)n(C)c1=O)[C@@H]1c3c(ccc4ccccc34)OC[C@@H]1CO2` it was 10.7%.
